Experiment [1] has as its target Flag-Fbxw5 (human) (UniProt Q969U6). Nature of the experiment: co-IP; tagged proteins expressed in Hek293T cells, extracts subjected to anti-Flag IP (FLAG-agarose, 3 h; lysis buffer 20 mM HEPES pH 7.3, 110 mM K-acetate, 0.2% NP-40), Western blot.
Experiment [2] has as its target Fbxw5 (Sf21, co-expressed with Skp1) (human) (UniProt Q969U6). In words: co-purification; F-box protein and Skp1 co-expressed in Sf21 cells by co-infection, purified together via Ni-NTA and Superdex 200.
In experiment [3] the target is Flag-Fbxw5 (human) (UniProt Q969U6). In words: co-IP; exogenously expressed Flag-Fbxw5 precipitated with anti-Flag antibodies, eluted with FLAG-peptide, TCA precipitated; endogenous partners detected by Western blot (Fig EV1C). A general note: Immunoblotting shows a protein as a band on a membrane.
Experiment [4] addresses endogenous Fbxw5 (human (endogenous in RPE-1)) (UniProt Q969U6). Nature of the experiment: co-IP; endogenous proteins; anti-Fbxw5 IgG or unspecific rabbit IgG with Protein A agarose, lysis buffer with 0.4% NP-40; Fig 2D: RPE-1 cells asynchronous or arrested 24 h with 2 mM HU, 10 µM RO-3306 or 75 ng/ml nocodazole; Fig EV1D: cell line not stated.

Chains of the proteins cited; added tags and fusions are not shown. Lines headed by an entry give the natural chain unless they say otherwise; changes in a name come on top. A line that says so, or that is headed by a name, gives the form on record, which may keep a tag or linker. Residues count along the entry.
UniProt Q969U6: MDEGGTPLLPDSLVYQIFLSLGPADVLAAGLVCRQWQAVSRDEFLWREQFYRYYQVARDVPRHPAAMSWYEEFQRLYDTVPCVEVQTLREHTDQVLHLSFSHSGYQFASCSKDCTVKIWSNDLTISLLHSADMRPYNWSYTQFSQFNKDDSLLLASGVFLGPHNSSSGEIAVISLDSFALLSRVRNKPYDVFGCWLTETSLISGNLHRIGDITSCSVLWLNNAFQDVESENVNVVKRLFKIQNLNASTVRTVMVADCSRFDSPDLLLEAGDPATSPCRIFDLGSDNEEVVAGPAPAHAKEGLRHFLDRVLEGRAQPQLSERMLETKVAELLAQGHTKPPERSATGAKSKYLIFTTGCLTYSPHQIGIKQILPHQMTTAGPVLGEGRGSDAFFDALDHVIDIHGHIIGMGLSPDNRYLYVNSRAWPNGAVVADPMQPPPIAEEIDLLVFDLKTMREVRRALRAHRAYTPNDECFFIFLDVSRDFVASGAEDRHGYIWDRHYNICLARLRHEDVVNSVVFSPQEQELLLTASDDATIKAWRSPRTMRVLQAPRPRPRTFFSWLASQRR
UniProt O00139, residues 28-706: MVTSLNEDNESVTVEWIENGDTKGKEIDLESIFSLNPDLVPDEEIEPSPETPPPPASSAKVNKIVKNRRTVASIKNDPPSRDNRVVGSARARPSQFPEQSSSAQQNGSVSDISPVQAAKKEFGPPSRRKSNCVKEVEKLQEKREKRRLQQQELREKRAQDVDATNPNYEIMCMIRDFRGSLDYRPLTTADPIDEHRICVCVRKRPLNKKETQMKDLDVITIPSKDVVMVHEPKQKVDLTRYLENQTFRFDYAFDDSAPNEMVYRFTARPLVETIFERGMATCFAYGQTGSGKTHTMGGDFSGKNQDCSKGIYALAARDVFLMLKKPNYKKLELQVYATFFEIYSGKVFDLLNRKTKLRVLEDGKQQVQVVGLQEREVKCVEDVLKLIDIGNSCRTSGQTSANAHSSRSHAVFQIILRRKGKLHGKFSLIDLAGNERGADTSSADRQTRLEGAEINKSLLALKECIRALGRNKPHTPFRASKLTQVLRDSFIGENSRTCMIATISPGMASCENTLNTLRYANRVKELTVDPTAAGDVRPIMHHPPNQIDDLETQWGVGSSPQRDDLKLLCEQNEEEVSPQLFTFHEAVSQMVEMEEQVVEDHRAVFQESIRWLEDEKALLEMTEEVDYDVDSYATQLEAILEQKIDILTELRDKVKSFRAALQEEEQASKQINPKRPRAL
UniProt Q8N4N8: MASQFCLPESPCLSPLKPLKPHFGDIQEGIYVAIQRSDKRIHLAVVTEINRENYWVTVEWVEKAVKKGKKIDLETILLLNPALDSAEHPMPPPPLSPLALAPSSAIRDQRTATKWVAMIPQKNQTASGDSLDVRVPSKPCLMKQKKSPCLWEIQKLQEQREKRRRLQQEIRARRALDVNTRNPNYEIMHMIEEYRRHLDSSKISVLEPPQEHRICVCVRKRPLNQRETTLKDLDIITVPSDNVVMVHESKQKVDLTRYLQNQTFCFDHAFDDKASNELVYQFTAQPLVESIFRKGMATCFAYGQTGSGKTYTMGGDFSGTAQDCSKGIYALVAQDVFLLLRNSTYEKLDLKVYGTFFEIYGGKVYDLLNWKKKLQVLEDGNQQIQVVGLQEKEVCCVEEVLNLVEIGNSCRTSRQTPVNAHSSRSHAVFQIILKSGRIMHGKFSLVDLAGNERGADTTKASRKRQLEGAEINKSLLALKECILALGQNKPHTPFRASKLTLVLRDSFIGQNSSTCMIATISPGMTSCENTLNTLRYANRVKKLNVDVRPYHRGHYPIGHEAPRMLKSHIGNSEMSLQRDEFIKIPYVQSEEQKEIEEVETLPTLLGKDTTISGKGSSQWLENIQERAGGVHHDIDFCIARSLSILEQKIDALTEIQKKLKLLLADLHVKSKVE
Skp1ΔΔ (P63208, form named): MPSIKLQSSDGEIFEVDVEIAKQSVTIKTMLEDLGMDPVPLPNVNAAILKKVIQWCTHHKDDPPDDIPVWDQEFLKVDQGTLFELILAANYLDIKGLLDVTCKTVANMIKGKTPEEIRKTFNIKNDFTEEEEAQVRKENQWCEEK
UniProt P09211: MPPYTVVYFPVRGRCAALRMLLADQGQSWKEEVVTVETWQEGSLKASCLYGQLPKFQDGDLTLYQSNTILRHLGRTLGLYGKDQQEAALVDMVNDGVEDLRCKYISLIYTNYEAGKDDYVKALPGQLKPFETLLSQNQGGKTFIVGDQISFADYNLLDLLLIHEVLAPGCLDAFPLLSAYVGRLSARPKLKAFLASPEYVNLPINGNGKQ
UniProt O14964: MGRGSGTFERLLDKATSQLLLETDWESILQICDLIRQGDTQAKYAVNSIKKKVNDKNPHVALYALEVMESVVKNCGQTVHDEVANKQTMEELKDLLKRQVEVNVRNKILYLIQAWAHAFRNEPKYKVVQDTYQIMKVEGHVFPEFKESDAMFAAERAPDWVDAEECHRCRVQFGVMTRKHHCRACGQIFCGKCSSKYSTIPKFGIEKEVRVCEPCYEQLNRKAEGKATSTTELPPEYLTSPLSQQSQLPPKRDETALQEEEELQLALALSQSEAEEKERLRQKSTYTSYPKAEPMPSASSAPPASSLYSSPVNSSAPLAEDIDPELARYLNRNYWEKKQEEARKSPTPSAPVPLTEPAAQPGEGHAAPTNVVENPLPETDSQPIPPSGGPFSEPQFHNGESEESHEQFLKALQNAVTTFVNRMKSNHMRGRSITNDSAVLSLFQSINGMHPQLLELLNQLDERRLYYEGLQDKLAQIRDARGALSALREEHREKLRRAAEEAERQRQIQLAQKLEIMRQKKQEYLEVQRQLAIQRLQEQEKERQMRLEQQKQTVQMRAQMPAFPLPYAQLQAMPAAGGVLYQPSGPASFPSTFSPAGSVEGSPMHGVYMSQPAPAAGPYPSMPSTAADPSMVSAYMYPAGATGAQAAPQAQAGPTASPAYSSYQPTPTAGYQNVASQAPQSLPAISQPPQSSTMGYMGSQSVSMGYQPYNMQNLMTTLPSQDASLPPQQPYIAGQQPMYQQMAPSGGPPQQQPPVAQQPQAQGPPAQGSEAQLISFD

Results are given in words; binding and its absence hold for the method and conditions named. For part of these data: Binding seen in cells or lysates may run through a third protein. Some binding calls cover weakened binding; strength is not graded here.

For the substance HA-Kif2a (from UniProt O00139-1 1-679), the binding entry in the experiment with Flag-Fbxw5 (human) [1] is on record as “binds weakly”.

Regarding HA-Kif2b (from UniProt Q8N4N8 1-673), the binding result with Flag-Fbxw5 (human) [1] was “binds”.

Regarding Skp1ΔΔ (from UniProt P63208 1-163), the binding result in experiment [2] is reported as “binds”.

Regarding “endogenous GSTP1 (from UniProt P09211 1-210)”, in the experiment with Flag-Fbxw5 (human) [3], the binding result is “binds”.

As for “endogenous HGS (from UniProt O14964 1-777)”, the binding entry (in the experiment with Flag-Fbxw5 (human) [3]; in experiment [4]) was “binds” throughout.

The record behind these values is paper PMC8441365.
